Data published in PubChem BioAssay AID588453 (National Center for Advancing Translational Sciences (NCATS), 2011).
About 4,000 (1%) of roughly 390,000 compounds were called active. The inconclusive results got no clear call from the source; some entries with a clear call stand among them for comparison. The call rests on the fitted dose curve; in most records, active means well fitted inhibition curve with a large enough effect; inconclusive means small, poorly fitted or top-dose-only effect; inactive means no such curve, though single readings can be large or run the other way. Potencies of inconclusive entries are doubtful fits and often do not repeat.

Target: Thioredoxin reductase 1, cytoplasmic (Rattus norvegicus) (UniProt O89049)
Sequence of UniProt O89049 (O89049 whole entry, looked up): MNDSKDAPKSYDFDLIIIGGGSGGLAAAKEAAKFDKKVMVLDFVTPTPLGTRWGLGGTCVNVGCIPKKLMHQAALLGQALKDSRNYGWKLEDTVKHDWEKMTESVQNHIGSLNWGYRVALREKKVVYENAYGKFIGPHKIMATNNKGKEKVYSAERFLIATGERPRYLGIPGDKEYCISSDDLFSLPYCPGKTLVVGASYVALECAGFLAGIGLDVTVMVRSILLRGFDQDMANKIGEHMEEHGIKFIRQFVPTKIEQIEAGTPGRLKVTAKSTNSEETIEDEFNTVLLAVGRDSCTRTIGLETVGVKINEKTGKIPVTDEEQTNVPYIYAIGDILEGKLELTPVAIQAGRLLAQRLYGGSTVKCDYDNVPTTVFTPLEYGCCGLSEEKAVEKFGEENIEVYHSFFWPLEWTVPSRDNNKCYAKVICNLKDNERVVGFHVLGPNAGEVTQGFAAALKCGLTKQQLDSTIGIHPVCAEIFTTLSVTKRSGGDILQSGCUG
Assay: qHTS Assay for Inhibitors of Mammalian Selenoprotein Thioredoxin Reductase 1 (TrxR1): qHTS; further: nearly all actives have a fitted effect of over 65% in size
Details: recombinant rTrxR1, NADPH fluorescence consumption, selenite substrate; series mostly up to 114 µM
How it was run: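 Rat TrxR1 (90 nM in the dispensed reagent) was pre-reduced with 400 uM NADPH for 5 min at room temperature, then incubated with compound for 15 min. After 400 uM selenite was added, NADPH fluorescence (Ex 340/Em 450 nm) was followed for 8 min.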
Potency means the concentration at half of the fitted maximal effect; tags describe the fitted curve by direction and shape.

SMILES	Potency
COc1ccc(CCNC(=O)CCCn2nc(C)c3sc4ccccc4c3c2=O)cc1OC	inactive
FC(F)(F)c1ccccc1NC(=S)Nc1ccccc1	inconclusive: 79.4 µM [inhibitor, single point]
Cn1ccnc1Sc1cc(Cl)ccc1[N+](=O)[O-]	inactive
COC(=O)c1ccc(NC(=O)C2C3C=CC(O3)C2C(=O)O)cc1 (stereo unspecified)	inconclusive: 79.4 µM [inhibitor, single point]
COc1ccc(C(C(=O)Nc2ccc(C(C)C)cc2)N(Cc2ccco2)C(=O)CC2NC(=O)NC2=O)cc1 (stereo unspecified)	inactive
C=CCNC(=O)/C(=C/c1ccco1)NC(=O)c1ccc(Br)o1	inconclusive: 11.2 µM [inhibitor, full curve]
CCOC(=O)c1nnc(-c2ccc(C)cc2)nc1Oc1ccccc1Cl	inconclusive: 15.8 µM [inhibitor, partial curve, poor fit]
Cc1nnc(NC(=O)/C=C/c2ccco2)s1	inconclusive: 70.8 µM [inhibitor, partial curve]
Cc1nn(C)c(C)c1NC(=O)CSc1nc(C2CC2)nc2c1cnn2-c1ccccc1	inactive
C/C(CC(=O)NCc1ccccc1)=N\NC(=O)c1cnccn1	inconclusive: 79.4 µM [inhibitor, single point]
CCCN(CCC)c1ccc(/C=C/c2sc3ccccc3[n+]2CCCCI)cc1	inconclusive: 35.5 µM [inhibitor, partial curve, poor fit]
N#Cc1cc(N)c(Nc2ccccc2)cc1C#N	inconclusive: 28.2 µM [inhibitor, single point]
COc1cccc(-c2nc(CS(=O)(=O)CC(=O)NC3CCCCC3C)c(C)o2)c1 (stereo unspecified)	inconclusive: 79.4 µM [inhibitor, single point]
Cc1csc(NC(=O)CSc2nnc(-c3ccoc3C)n2Cc2ccco2)n1	inconclusive: 79.4 µM [inhibitor, single point]
CCCn1nc(NS(=O)(=O)c2ccccc2[N+](=O)[O-])c2cc3ccccc3nc21	inconclusive: 89.1 µM [inhibitor, partial curve, poor fit]
COc1ccc(Br)cc1C1NC(c2ccc3c(c2)OCO3)=CC(c2cc(Cl)ccc2O)N1 (stereo unspecified)	inconclusive: 63.1 µM [inhibitor, single point]
COCCCn1c(O)c(/C=C2\N=C(C#N)C(=Nc3ccc(C)cc3)O2)sc1=S	inconclusive: 70.8 µM [inhibitor, partial curve, poor fit]
Clc1ccc(/C=C/c2ccc3ccccc3n2)cc1Cl	inconclusive: 79.4 µM [inhibitor, partial curve]
Oc1cccc(C(Nc2nccs2)c2ccc3cccnc3c2O)c1 (stereo unspecified)	inconclusive: 25.1 µM [inhibitor, single point]
O=C(CN1C2CCCC1CC(NC(=O)C1CCCCC1)C2)Nc1ccccc1C(F)(F)F (stereo unspecified)	inactive
CCOC(=O)c1cnc2c(OC)cccc2c1Nc1ccc2c(c1)OCCO2	inactive
COc1ccc(-c2nc(CS(=O)CC(=O)NCCC3=CCCCC3)c(C)o2)cc1 (stereo unspecified)	active: 15.8 µM
NC(Cc1ccccc1)C(=O)N1CCCCC1 (stereo unspecified)	inconclusive: 89.1 µM [inhibitor, partial curve, poor fit]

SMILES	Potency
CCN(CC)C(=O)c1ccc(S(=O)(=O)Cc2ccc(C)cc2)c([N+](=O)[O-])c1	active: 31.6 µM
Cc1ccc(NC(/C=C/N(C)C)=C/C(=O)C(F)(F)F)c(C)c1	inconclusive: 79.4 µM [inhibitor, partial curve, poor fit]
O=[N+]([O-])c1ccc(/C=N/N=C/c2ccc([N+](=O)[O-])o2)o1	active: 2.51 µM
CC(C(=O)N1CCc2ccccc21)N1CCN(c2ccccn2)CC1 (stereo unspecified)	inactive
COCCCN1C(=O)C2C(C(=O)Nc3cc(C)cc(C)c3)C3C=CC2(O3)C1C(=O)NC1CCCCC1 (stereo unspecified)	inactive
COC(=O)c1cnn2c(C(F)(F)F)cc(-c3ccco3)nc12	inconclusive: 39.8 µM [inhibitor, single point]
Cc1ccc(NC(=O)c2cc(N3C(=O)CCC3=O)ccc2N2CCOCC2)cc1	inactive
CCCC(C)c1nnc(NC(=O)C(=O)OCC)s1 (stereo unspecified)	inconclusive: 50.1 µM [inhibitor, partial curve]
Cc1ccc(C(=O)N/C(=C/c2ccco2)C(=O)NCc2ccco2)cc1	inconclusive: 28.2 µM [inhibitor, single point]
COc1ccc(S(=O)(=O)N=Nc2c(O)[nH]c3ccccc23)cc1	inactive
COc1cc(NS(=O)(=O)c2ccc(NC(=S)NC(=O)c3cccs3)cc2)nc(OC)n1	inconclusive: 44.7 µM [inhibitor, partial curve]
S=C(NCCCN1CCN(CCCNC(=S)NC2CCCCC2)CC1)NC1CCCCC1	inconclusive: 79.4 µM [inhibitor, partial curve, poor fit]
CCCn1c(NC(=S)Nc2ccccc2)nc2ccccc21	inconclusive: 11.2 µM [inhibitor, partial curve]
COc1cccc(C(=O)NC2CC3CCCC(C2)N3CC(=O)Nc2ccc(N(C)C)cc2)c1 (stereo unspecified)	inactive
COc1ccc(-c2cn3cccc(C)c3n2)cc1Br	inactive
O=C(NC(=S)Nc1c(Cl)ccc2nsnc12)c1ccco1	inconclusive: 10 µM [inhibitor, full curve]
CC(=O)Nc1ccc(NC(=O)COC(=O)CCNS(=O)(=O)c2c(Cl)cccc2Cl)cc1	inactive
COC(=O)/C=C1/S/C(=N/NC(=O)c2ccccc2C)NC1=O	inconclusive: 89.1 µM [inhibitor, single point]
Cc1cc(C)nc(/N=c2/ssnc2Cl)c1	inactive
Cc1ccccc1N1CCN(C2CCCN(C(=O)CCC3(C)CC3)C2)CC1 (stereo unspecified)	inconclusive: 79.4 µM [inhibitor, single point]
O=C(NCc1ccc(OC(F)(F)F)cc1)c1cc(-c2ccccc2)nn1CC1CC(c2cccnc2)=NO1 (stereo unspecified)	inactive
CCc1nn(CC(=O)NCCOC)c(=O)c2cc3cc(F)ccc3n12	inactive
CN=C1S/C(=C\c2ccc(O)c(OC)c2)C(=O)N1C	inactive
